Results reported in paper PMC4336329 (PLoS ONE, 2015).
In all, about 310,000 compounds went through this assay and about 14,000 (4.5%) showed an effect of 50% or more. The effect is printed as a negative number. Some of the results follow.

molecular target: human ether-à-go-go-related gene (hERG) potassium channel (human, UniProt Q12809); experiment: primary screen, population patch clamp on CHO cells stably expressing hERG
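Also: peak tail current of the secondary pulse compared with the same well before compound.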

human ether-à-go-go-related gene (hERG) potassium channel, sequence (Q12809 whole entry, looked up): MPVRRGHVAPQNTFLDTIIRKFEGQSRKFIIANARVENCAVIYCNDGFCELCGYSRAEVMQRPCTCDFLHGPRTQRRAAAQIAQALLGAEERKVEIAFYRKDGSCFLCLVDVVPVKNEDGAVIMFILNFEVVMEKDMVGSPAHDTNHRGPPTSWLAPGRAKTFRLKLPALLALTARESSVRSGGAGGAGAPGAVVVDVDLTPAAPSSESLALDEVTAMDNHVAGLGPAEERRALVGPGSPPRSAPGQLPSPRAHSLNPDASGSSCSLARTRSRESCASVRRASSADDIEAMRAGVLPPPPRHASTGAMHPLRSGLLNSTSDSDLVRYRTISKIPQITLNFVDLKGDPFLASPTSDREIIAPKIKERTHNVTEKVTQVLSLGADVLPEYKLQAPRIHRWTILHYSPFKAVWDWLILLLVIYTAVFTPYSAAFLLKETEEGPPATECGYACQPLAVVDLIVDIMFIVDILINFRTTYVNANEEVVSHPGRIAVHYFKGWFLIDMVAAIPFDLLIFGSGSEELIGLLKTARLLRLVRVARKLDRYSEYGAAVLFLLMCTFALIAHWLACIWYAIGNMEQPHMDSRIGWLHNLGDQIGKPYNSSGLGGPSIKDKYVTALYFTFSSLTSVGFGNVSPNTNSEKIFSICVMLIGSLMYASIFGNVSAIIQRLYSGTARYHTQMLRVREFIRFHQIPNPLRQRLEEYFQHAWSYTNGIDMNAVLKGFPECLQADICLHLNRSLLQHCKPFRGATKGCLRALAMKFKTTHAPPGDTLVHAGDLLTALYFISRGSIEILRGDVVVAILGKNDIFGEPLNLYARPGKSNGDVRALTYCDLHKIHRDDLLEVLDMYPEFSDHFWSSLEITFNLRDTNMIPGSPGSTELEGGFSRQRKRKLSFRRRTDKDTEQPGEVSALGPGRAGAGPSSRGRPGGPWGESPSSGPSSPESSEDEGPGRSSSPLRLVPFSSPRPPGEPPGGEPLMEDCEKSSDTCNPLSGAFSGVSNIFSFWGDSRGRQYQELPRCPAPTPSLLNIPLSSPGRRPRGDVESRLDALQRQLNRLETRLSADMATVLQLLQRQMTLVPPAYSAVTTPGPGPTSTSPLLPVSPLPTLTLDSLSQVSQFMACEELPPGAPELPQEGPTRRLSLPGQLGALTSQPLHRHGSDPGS

Structure (SMILES) | hERG current change (%, negative = inhibition) at 10uM [%]
Cc1cccc(OCC(=O)NNS(=O)(=O)c2ccccc2F)c1 | 14.5
CCOC(=O)c1cnc(-c2ccccc2)nc1N | -2.78
CC1CCCN(S(=O)(=O)c2ccc(C(=O)Nc3nnc(C4CC4)o3)cc2)C1 (centres unmarked) | 1.22
Nc1nc(NCc2ccco2)nc(Nc2cccc(F)c2)c1[N+](=O)[O-] | 22.3
Cc1cc(C)c(S(=O)(=O)N(C)CC(=O)NCc2cccnc2)c(C)c1 | 5.05
CCCC(=O)c1cc2c(cc1NC(=O)CC)OCCO2 | -14
Cc1ccccc1OC(C)C(=O)NCc1cccnc1 (centres unmarked) | 2.43
COc1ccccc1NS(=O)(=O)c1cc(NC(=O)c2ccc(=O)[nH]c2)ccc1N1CCOCC1 | -2.74
O=C(Nc1ccc(CN2CCOCC2)cc1)c1cc2ccccn2n1 | -21.3
Cc1cc(CNC(=O)C2CCC(=O)N(Cc3cccc(C(F)(F)F)c3)C2)no1 (centres unmarked) | 2.38
COc1ccc(C(=O)N/N=C/c2ccc(OC)c(CN3CCN(c4ccc(F)cc4)CC3)c2)cc1 | -74.2
O=C(O)/C(=C\c1cn(-c2ccccc2)nc1-c1cccnc1)NC(=O)c1ccccc1 | 7.21
Cc1c(NC(=O)Cc2noc3ccccc23)cccc1[N+](=O)[O-] | 29.4
CCSC1=N/C(=C\c2ccc(OC)cc2)C(=O)N1 | -0.965
CCCN1CCN(C(=O)C(C)n2nc(C)c3sc4ccccc4c3c2=O)CC1 (centres unmarked) | -13.3
CCCCn1nnnc1SCC(=O)NNC(=O)c1ccco1 | 22.6
CC(C)CC(=O)c1c[nH]c(C(=O)NCCc2ccccn2)c1 | -0.743
COc1cccc(NC(=O)C2CCCN2C(=O)Nc2cccc(F)c2)c1 (centres unmarked) | -4.71
O=C(Cc1cccs1)N1CCN(c2cccc(Cl)c2)CC1 | -12

Structure (SMILES) | hERG current change (%, negative = inhibition) at 10uM [%]
COCCNC(=O)c1ccccc1NC(=O)c1ccccc1N(C)S(=O)(=O)c1ccc(C)cc1 | -19.9
O=C(c1ccc(CS(=O)Cc2ccccc2Cl)o1)N1CCN(C2CCCCC2)CC1 (centres unmarked) | 1.8
COCCNc1ccc(S(=O)(=O)N2CCCC2)cc1[N+](=O)[O-] | -12.3
Cc1ccc(S(=O)(=O)Nc2nc(C)c(C(=O)N/N=C/c3ccccc3)s2)cc1 | 16.9
O=S(=O)(c1ccc(SCc2ccccc2)nc1)N1CCCCCC1 | -2.37
COc1ccc(OC)c2sc(N(CCN(C)C)C(=O)c3cc(Cl)sc3Cl)nc12.Cl | -28.9
CCOC(=O)CCCn1nc(C)n2c(cc3sccc32)c1=O | -21.6
COc1ccc(NC(=O)c2cc([N+](=O)[O-])ccc2NC(=O)CNCc2ccccn2)c(OC)c1 | 7.29
Cc1cccc(NC(=O)NCC2CCN(c3ccc(S(=O)(=O)N4CCOCC4)cc3)CC2)c1 | -8.61
COC(=O)CCC(=O)N1CCOCCOCCOCC1 | 6.29
O=C(Nc1nc2c(s1)CCCC2)C1COc2ccccc2O1 (centres unmarked) | -12.5
Cc1ccc(C)c(SCC(=O)NNC(=O)c2csc(N3CCOCC3)n2)c1 | -55.1
CSc1cccc(NC(=S)N2CCC(N(C)C3CCCCC3C)CC2)c1 (centres unmarked) | -58.2
COc1ccc(C(=O)Nc2ccc(S(=O)(=O)N3CCN(C)CC3)cc2)cc1 | 8.1
CC(Cc1ccccc1)NC(=O)/C=C/c1ccc([N+](=O)[O-])cc1 (centres unmarked) | -51.7
CC1(C)NC(=O)N(CCOc2ccc3c(c2)CCC3)C1=O | -4.24
O=C(NCc1cccs1)C1CCCN(S(=O)(=O)c2cnc[nH]2)C1 (centres unmarked) | 3.55
CCOc1ccc(S(=O)(=O)Nc2cccc(C(=O)N3CCN(c4cccc(OC)c4)CC3)c2)cc1 | 14.4
COc1ccc(-c2nc3c(c4nnc(SC(C)C(=O)Nc5ccccc5)n24)COC(C)(C)C3)cc1 (centres unmarked) | -5.88

Structure (SMILES) | hERG current change (%, negative = inhibition) at 10uM [%]
COc1ccc(NC(=O)CN(C)C(=O)c2cnc(Cl)c(Cl)c2)cc1 | 2.39
CC1=NN(/C(=N\c2nnc(C)s2)Nc2ccccc2)[C@H](c2ccc(C)cc2)S1 | -13.5
COc1cccc(CN(C)C(=O)c2ccc(OCC(=O)Nc3cccc(C(F)(F)F)c3)c(OC)c2)c1 | -26.2
COCCNC(=O)CN1CCC(NC(=O)Nc2ccc(C(F)(F)F)cc2)CC1 | -29.2
O=C(Cc1ccc(S(=O)(=O)N2CCOCC2)s1)NNC(=O)c1ccccc1Cl | 12.2
Cc1cc2ccccn2c1C(=O)c1ccc(C#N)cc1 | 16.7
O=C(CSc1nc2[nH]ncc2c(=O)[nH]1)NCc1ccccc1 | 15
CC1CCN(C(=S)c2cccc(O)c2)CC1 | 7.49
O=C(CSc1nncn1-c1cccnc1)Nc1ccccc1[N+](=O)[O-] | 2.77
CCC(=O)c1ccc(N2CCCCC2)c(F)c1 | 8.26
CC(=O)Nc1ccc(NC(=O)COC(=O)/C=C/c2ccc3c(c2)OCO3)cc1 | 18.5
Cn1/c(=N/NC(=O)c2ccccc2F)sc2ccccc21 | 5.9
CCCc1nnc(NC(=O)CCC(=O)NCc2ccccc2Cl)s1 | -18.1
C=CCc1c(C)nc(N)[nH]c1=O | 12.8
CC1Sc2ccc(S(=O)(=O)CCC(=O)Nc3ccccn3)cc2NC1=O (centres unmarked) | 21.7
O=C(CC(c1ccco1)S(=O)(=O)c1ccccc1)c1ccccc1 (centres unmarked) | 0.0106
Cc1ccc(C(=O)C(C)OC(=O)CN2C(=O)NC3(CCCC3)C2=O)cc1C (centres unmarked) | 9.76
COc1ccc(CCC(=O)NNC(=O)c2cccs2)cc1 | 5.98
